Measurements: patent publication US20150274807A1 (SUZHOU ALPHAMAB, published 2015)

Experiments:
[1] = target: T1, Fc protein E357K/K370E/K392D/K409D/D399K (human); experiment: co-transfection 1:1 in 293H, protein A pull-down, non-reducing SDS-PAGE densitometry
T1 construct: Monomer chain; also called Fc-mix13; Fc of mutation combination 4
T1 chain: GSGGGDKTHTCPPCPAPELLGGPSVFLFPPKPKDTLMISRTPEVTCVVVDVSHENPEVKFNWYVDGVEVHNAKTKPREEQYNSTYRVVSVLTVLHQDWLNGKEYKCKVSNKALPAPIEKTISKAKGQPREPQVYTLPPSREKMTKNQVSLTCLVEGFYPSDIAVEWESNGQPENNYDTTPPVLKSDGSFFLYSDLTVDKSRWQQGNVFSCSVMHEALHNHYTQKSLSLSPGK
Procedure: (§1) The expression vectors harbor 8 mutation combinations in step 3 were separately transfected with PEI into suspension adapted 293H cells (ATCC CRL-1573), the co-transfection ratio of plasmids pcDNA3.1-zeo-ScFv-Fc to pcMVβ-SP-Fc was 1:1, and after 3-4 days, cell culture supernatant was collected. Immuno precipitation was performed with protein A agarose resin, and the content of the homodimer proteins or antibodies (ScFv-Fc/ScFv-Fc and Fc/Fc) and the heterodimer protein or antibody (ScFv-Fc/Fc) was detected by SDS-PAGE under non-reducing conditions. Gel-Pro professional image analysis software (Media Cybernetics company) was used for analyzing the proportion of the homodimer proteins or antibodies (ScFv-Fc/ScFv-Fc and Fc/Fc) and the heterodimer protein or antibody (ScFv-Fc/Fc). […] In addition, when E357K/K370E/K392D/K409D/D399K (mutation combination 4) was introduced on Fc, the stability should be further investigated because of the appearance of Fc monomers (about 6%).

[2] = target: the molecule itself; experiment: co-transfection 1:1 in 293H, protein A pull-down, non-reducing SDS-PAGE densitometry; co-expressed with Fc K392D/K409D/D399K
Procedure: as §1

B1: ScFv-Fc fusion protein, wild type (Fc fusion)
chain: EVQLLESGGGVVQPGRSLRLSCIASGFTFSSYPMTWVRQAPGKGLEWVASISYDGSYKYKADSMKGRLTISRDNSKNTLYLEMNSLTAEDTAVYYCARTAFFNAYDFWGQGTLVTVSSASTKGPSVGGGGSGGGGSEIVMTQSPATLSVSPGERATLSCRASQSVRSNLAWYQQKPGQAPRLLIYAASTRATGIPARFSGSGSGTEFTLTISSLQSEDFAVYYCQQYNEWFRTSGQGTKVEIKR[human IgG1 Fc with changes cut from this listing]
notes: the read-out is the pairing of two chains into a dimer; The Fc part is human IgG1; also called WT
[1]
  proportion of ScFv-Fc/Fc heterodimer on SDS-PAGE: 12.1%
[2]
  proportion of ScFv-Fc homodimer on SDS-PAGE: 44.5%
